In PubChem BioAssay AID686979 (National Center for Advancing Translational Sciences (NCATS), 2013):
The whole screen tested about 420,000 compounds, of which about 50,000 (12%) were called active. The inconclusive results got no clear call from the source; some entries with a clear call stand among them for comparison. Calls follow the shape of the dose curve; as a rule, active = well fitted inhibition curve with a large enough effect; inconclusive = small, poorly fitted or top-dose-only effect; inactive = flat fitted curve, though single readings scatter. Potencies of inconclusive entries are left out as doubtful fits.

Assay: qHTS for Inhibitors of human tyrosyl-DNA phosphodiesterase 1 (TDP1): qHTS in cells in presence of CPT; also: nearly all actives have a fitted effect of over 55% in size
Conditions: chicken DT40 Tdp1-/-;hTDP1 cells + 20 nM CPT, ATP luminescence, 48 h; series mostly up to 46.2 µM
Method in brief: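 Cell growth measured by CellTiter-Glo luminescence after a minimum 48 h, 37 C compound exposure with 20 nM CPT in Tdp1-knockout DT40 cells stably expressing hTDP1, seeded 400/well; qHTS titration format.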
Potency is read from the fitted curve at half-maximal effect; tags tell the direction and shape of the fitted curve.

Structure (SMILES) | Potency
CCCCn1c(SCC(=O)NCCCOC)nc2c(sc3ccccc32)c1=O | inactive
COc1ccc(-c2nn(CC(=O)N(C)C)c(=O)c3ccccc23)cc1 | inactive
CSc1ccccc1NC(=O)c1cc(-c2cccnc2)nc2ccc(Br)cc12 | inconclusive [inhibitor, single point]
Cc1cccc2cc(CN(C(=S)NCC(C)C)C3CCCC3)c(=O)[nH]c12 | inconclusive [inhibitor, single point]
COc1cccc(CNC(=O)C23CN(Cc4ccccc4)CC2C(c2ccc([N+](=O)[O-])cc2)=NO3)c1 (stereo not drawn) | inconclusive [inhibitor, single point]
N#CC1=C(N)SC(N)=C(C#N)C1Cc1ccccc1 | inconclusive [inhibitor, full curve]
CCOC(=O)Cn1c(=N)n(CCOc2ccc3ccccc3c2)c2ccccc21 | active: 17.8 µM
O=C(O)c1ccc(N/N=C/c2ccc(-c3ccccc3Cl)o2)cc1 | inactive
Cc1cc(C)cc(NC(=O)CN2CCc3ccccc3C2)c1 | inactive
COc1ccc(-c2c(C#Cc3ccsc3)c3cc(-c4ccc(OC)c(F)c4)ccc3n2C)cc1 | inconclusive [inhibitor, partial curve]
COc1ccc(-c2nnc(SCC(=O)NCc3ccc(C)cc3)nc2-c2ccc(OC)c(OC)c2)cc1OC | active: 14.6 µM
CC(=N/O)/C(C)=N\NC(=O)c1ccccn1 | inconclusive [inhibitor, partial curve]
CCOc1ccc(NC(=O)C(C)Oc2ccccc2C(=O)Nc2cccc(Cl)c2Cl)cc1 (stereo not drawn) | inconclusive [inhibitor, single point]
COc1ccc(S(=O)(=O)N(C)c2ccc(C(=O)Nc3ccccc3C(=O)N3CCOCC3)cc2)cc1OC | inconclusive [inhibitor, single point]
CC(=O)Nc1ccc(-c2ccnc3c2CC(C(=O)NCCC(F)(F)F)O3)cc1 (stereo not drawn) | active: 13 µM
CCc1ccc(C(=O)c2cn(CC(=O)Nc3ccc(OC)c(OC)c3)c3ccc(C)cc3c2=O)cc1 | inactive
CCOC(=O)NNC(=O)c1[nH]c2ccc(Br)cc2c1-c1ccccc1 | inconclusive [inhibitor, single point]
CCS(=O)(=O)N1CCC(n2c(C(F)(F)F)nc3cccnc32)CC1 | inconclusive [inhibitor, single point]
Cc1ccc(Cn2nnnc2CN2CCC(NC(=O)c3ccccc3F)CC2)cc1 | inconclusive [inhibitor, single point]
CN(C)Cc1c(C(=O)Nc2ccccc2)[nH]c2ccccc12 | inconclusive [inhibitor, single point]
Cc1nc(C)c2c(c1C(F)(F)F)-c1ccccc1C2(F)F | inconclusive [inhibitor, partial curve]
COc1ccccc1N1CCN(c2ncccc2-c2nc(-c3ccc(Cl)cc3)no2)CC1 | inconclusive [inhibitor, single point]
CCOC(=O)/C=C/C(=O)Nc1ccc(Oc2ccccc2)cc1 | inconclusive [inhibitor, single point]

Structure (SMILES) | Potency
O=C(CCN1N=C(c2ccccc2)CCC1=O)NCCc1ccc(Cl)cc1 | inconclusive [inhibitor, single point]
CCC1CC2CC(NC(C)=O)C1C2 (stereo not drawn) | inactive
CCCC1=Nc2cc(C(=O)NC(C)c3ccccc3)ccc2Sc2ccc(C)cc21 (stereo not drawn) | inconclusive [inhibitor, single point]
COc1ccc(O)c(C=NCC(C)N=Cc2cc(OC)ccc2O)c1 (stereo not drawn) | inactive
CC(C)(C)c1ccc(OCC(O)CN(CCO)CC(O)Cn2ccc3ccccc32)cc1 (stereo not drawn) | inconclusive [inhibitor, single point]
COCCn1c(SCC(=O)Nc2cc(C)on2)nnc1C(C)C | inactive
Cc1ccc(CN(C)C(=O)c2cc(COc3cccc(C(F)(F)F)c3)on2)o1 | inconclusive [inhibitor, single point]
CCCOc1ccc(Cn2c(=O)oc3ccc(C)cc32)cc1OC | inconclusive [inhibitor, single point]
COc1ccc(CC(=O)Nc2ccc(S(=O)(=O)NC(C)C)cc2)cc1 | inconclusive [inhibitor, single point]
Cc1ccc(NC(=Nc2ccc(Br)cc2)N2CCOCC2)cc1C | inconclusive [inhibitor, single point]
Cn1c2c(c(=O)n(C)c1=O)C(C(F)(F)F)(C(F)(F)F)N=C(c1ccccc1Cl)N2 | active: 23.1 µM
COc1ccccc1CNC(=O)C1(C)CCCCN1C (stereo not drawn) | inconclusive [inhibitor, partial curve, poor fit]
COc1ccc(CN(C)C(=O)c2cccc(S(=O)(=O)N3CCN(c4ccccc4)CC3)c2)c(OC)c1OC | active: 11.6 µM
CC(C)C[C@H](NC(=O)c1[nH]cnc1C(=O)N[C@@H](C)C(=O)OC(C)(C)C)C(=O)OCc1ccccc1 | inconclusive [inhibitor, single point]
CC(/C=C/c1ccccc1F)=N\NC(=O)c1cccc(F)c1 | inconclusive [inhibitor, single point]
CC(C)(C)NC(=S)N1CCC(C(=O)c2ccc(Cl)cc2)CC1 | inactive
O=C(CSc1nc(C2CC2)nc2ccccc12)N1c2ccccc2Sc2ccc(C(F)(F)F)cc21 | active: 8.2 µM
Cc1cccc2cc(/C=N/NC(=O)c3ccccc3O)c(Cl)nc12 | active: 18.4 µM
COc1cccc(C2NC(=O)CCC2[N+](=O)[O-])c1OC (stereo not drawn) | inactive
CCOC(=O)c1cnc2c(ccc3ccccc32)c1Nc1cccc(OC)c1 | inconclusive [inhibitor, single point]
CC(C)OC(=O)c1cccc(NC(=O)c2ccccc2)c1 | active: 13 µM
COc1ccccc1-n1nnnc1SCC(=O)Nc1ccc(C)c(N)c1 | inconclusive [inhibitor, single point]
Cc1cccc(N(C)S(=O)(=O)c2ccc3c(c2)C(C)(C)C(=O)N3C)c1 | inconclusive [inhibitor, single point]

Structure (SMILES) | Potency
CCN(CC(=O)Nc1c(F)cccc1F)C(=O)CCNS(=O)(=O)c1ccc(C)c(C)c1 | inactive
CC1(C)CCCN(Cc2c(O)ccc3c(=O)c(-c4nc5ccccc5s4)c(N)oc23)C1 | active: 18.4 µM
CCOc1ccc(CSC2=NCCN2)cc1[N+](=O)[O-] | inconclusive [inhibitor, single point]
O=C(NCCc1ccccc1)c1cc(S(=O)(=O)N2CCCCC2)c[nH]1 | inconclusive [inhibitor, single point]
COc1ccc(CCNC(=O)c2ccc3c(c2)N(Cc2ccccc2F)C(=O)c2ccccc2S3(=O)=O)cc1OC | active: 16.4 µM
COc1ccc(NC(=O)CSCC(=O)N(C)Cc2c(F)cccc2Cl)cc1 | inconclusive [inhibitor, single point]
Cc1nn(-c2ccccc2)c(C)c1/C=N/NC(=O)c1cc(C23CC4CC(CC(C4)C2)C3)[nH]n1 | inconclusive [inhibitor, single point]
O=C(Nc1ccc(OCc2ccccc2)cc1)c1cccs1 | inconclusive [inhibitor, partial curve]
COc1cccc2cc(C(=O)CS(=O)(=O)c3ccc(Cl)cc3)c(=O)oc12 | inconclusive [inhibitor, single point]
c1cncc(Cc2cc3ccccc3[nH]2)c1 | inconclusive [inhibitor, single point]
Cc1ccc(S(=O)(=O)N2CCC(=O)N(C(COCc3ccc(Cl)cc3Cl)Cc3ccccc3)CC2)cc1 (stereo not drawn) | inconclusive [inhibitor, single point]
Cc1ccccc1OCC(=O)OCC(=O)Nc1ccc(Cl)cn1 | inactive
CC(=O)NC(c1ccccc1)c1nc(-c2csc3ccccc23)cs1 (stereo not drawn) | inconclusive [inhibitor, single point]
O=C(CSc1ccc(-c2ccc(Cl)cc2)nn1)N1CCCc2ccccc21 | inconclusive [inhibitor, partial curve]
CCCNC(=O)N1CCC(C(=O)c2ccc(Cl)cc2)CC1 | inconclusive [inhibitor, single point]
O=C(NCC(NS(=O)(=O)OCC(Cl)(Cl)Cl)c1ccccc1)C(F)(F)F (stereo not drawn) | inconclusive [inhibitor, single point]
Cc1ccc(NC(=O)/C=C/c2ccc(C)o2)c(C)c1 | inconclusive [inhibitor, single point]
CC(=O)OC1CSC2c3ccccc3C(=O)N2Cc2sccc21 (stereo not drawn) | inactive
CCOC(=O)C1=CC[C@@H](c2ccco2)N(S(=O)(=O)c2ccc(C)cc2)[C@H]1C(=O)OCC | inconclusive [inhibitor, single point]
O=C(NC1CCCCC1)N(Cc1cc2cc3c(cc2[nH]c1=O)OCCO3)CC1CCCO1 (stereo not drawn) | inconclusive [inhibitor, partial curve]
C=CS(=O)(=O)N(Cc1ccccc1)[C@H](CO)CC(C)C | active: 10 µM
CCCCN(CCCC)S(=O)(=O)c1ccc(N2CCCC2=O)c([N+](=O)[O-])c1 | inconclusive [inhibitor, single point]
